Test results reported in PubChem BioAssay AID463173 (ICCB-Longwood Screening Facility, Harvard Medical School, 2010).
Out of some 52,000 compounds screened, about 1,700 (3.3%) were called active. Cut-off read from the data, not from the text of the source: active = survival mostly below about 52% (no sharp cut-off); inactive = mostly above about 56%. The list shows a part of the results.

System: Wild type
Experiment: growth inhibition of S. aureus wild type versus tarO mutant, primary screen, teichoic acid synthesis inhibitors, RN4220, OD600 (AID 463173)
Settings: S. aureus RN4220 wild type/DeltatarO growth, OD600, 18 h, active compounds read low, screened at 18.75 µg/mL (by protocol)

SMILES | survival
Cc1ccc(OC(=O)CSc2nnc(-c3cccs3)o2)cc1 | inactive: 82%
COc1ccc(C(=O)c2oc3ccccc3c2NC(=O)COc2cccc(C)c2C)cc1 | inactive: 71%
CCC(=O)Nc1ccc(CC)cc1-c1nc2ccccc2n(Cc2ccccc2)c1=O | inactive: 81%
O=C(Cn1c(-c2cccs2)cc2cc(Cl)ccc21)N1CCN(c2ccccc2F)CC1 | inactive: 70%
CC(NC(=O)CN(c1ccc(Cl)cc1Cl)S(=O)(=O)c1ccccc1)c1ccccc1 (stereo unspecified) | inactive: 66%
CC1CCC(NC(=O)c2cc3c(Cl)nc4ccccc4c3s2)CC1 (stereo unspecified) | inactive: 83%
O=C(Cn1ccc2cc(S(=O)(=O)N3CCCCC3)ccc21)NCc1cccc(Cl)c1 | inactive: 128%
O=C(c1cccc(F)c1)N1CCN(C(=O)c2cccc3ccccc23)CC1 | inactive: 107%
Cc1cc(C)c(NC(=O)Cn2nnc(-c3ccccc3)n2)c(C)c1 | inactive: 71%
Cc1cc(S(=O)(=O)NCC(c2ccco2)S(=O)(=O)c2ccccc2)ccc1F (stereo unspecified) | inactive: 69%
CCOC(=O)C(C)NC(=O)C1CCN(c2ncnc3c2nc2n3CCCCC2)CC1 (stereo unspecified) | inactive: 70%
CC(=O)Nc1ccccc1-c1nc2ccccc2n(Cc2cccc(Br)c2)c1=O | inactive: 104%
COc1ccc(F)cc1S(=O)(=O)Nc1cccc(-c2ccc(N3CCCCCC3)nn2)c1 | inactive: 92%
CCOc1ccccc1NC(=O)Cn1c(=O)n(Cc2ccccc2)c(=O)c2cccnc21 | inactive: 118%
N#C/C=C1\n2c(nc3ccccc32)OC12CCCCC2 | inactive: 108%
Cc1cccn2c(=O)cc(COc3cccc(NC(=O)COc4ccc(F)cc4)c3)nc12 | inactive: 120%
O=C(CN1CCCN(Cc2ccccc2Cl)S1(=O)=O)NCc1ccccc1 | inactive: 78%
Cc1ccc2[nH]c(=O)c(CN(CC3CCCO3)C(=S)NCCCN3CCOCC3)cc2c1 (stereo unspecified) | inactive: 111%
CC(C)N(Cc1ccccc1)C(=O)Cn1ncc2c([nH]c3ccccc32)c1=O | inactive: 79%
CCc1nnc(NC(=O)C(=O)c2cc(C)n(-c3ccccc3)c2C)s1 | inactive: 89%
O=C(N1CCOCC1)N1CCOCC1 | inactive: 101%
Cc1cc(C)cc(NC(=O)C2CCCN(C(=O)c3cnn(-c4ccccc4)c3-n3cccc3)C2)c1 (stereo unspecified) | inactive: 73%
O=C(CSc1nc2c([nH]c3ccccc32)c(=O)n1-c1ccc(Cl)cc1)N1CCOCC1 | inactive: 128%

SMILES | survival
CCC1CCCCN1CC(=O)Nc1cc(C)c2c(=O)oc3ccccc3c2n1 (stereo unspecified) | inactive: 83%
O=C(c1ccccc1/S(=N/S(=O)(=O)c1ccccc1)N1CCOCC1)N1CCOCC1 (stereo unspecified) | inactive: 106%
CCN(C(=O)c1cccs1)c1nnc(-c2cccc(C)c2)s1 | inactive: 115%
O=S(=O)(NCC(c1ccco1)N1CCOCC1)c1cc(F)ccc1F (stereo unspecified) | inactive: 81%
Cc1cccc(NC(=O)CSc2c(C)cnc3c2c(=O)n(C)c(=O)n3C)c1C | inactive: 56%
Cc1ccc(-c2nonc2NC(=O)c2ccc(F)cc2)cc1C | inactive: 85%
Cc1ccc(NC(=O)N2CCC(c3ccccc3)C2)cc1C (stereo unspecified) | inactive: 74%
O=C(CCc1ccccc1)N(Cc1cccnc1)c1nc2c(F)cccc2s1 | inactive: 55%
COc1cc(C(=O)NCC(c2ccco2)S(=O)(=O)c2ccccc2)cc(OC)c1OC (stereo unspecified) | inactive: 75%
CCc1nn(C(CC)C(=O)NCc2ccc(F)cc2)c(=O)c2cc3occc3n12 (stereo unspecified) | inactive: 84%
CC1=C(C(=O)Nc2ccccc2)C(CC(C)C)n2nc(SCc3ccccc3C)nc2N1 (stereo unspecified) | inactive: 81%
O=C(c1cc2c(s1)-c1ccccc1OC2)N1CCN(c2ccccc2)CC1 | inactive: 72%
CCCOc1ccc(C(=O)N(Cc2ccc(N(C)C)cc2)CC2CCCO2)cc1 (stereo unspecified) | inactive: 83%
CCCN(CCC)CCCNC(=O)Cn1ncc2c3ccccc3n(Cc3ccccc3)c2c1=O | inactive: 93%
Cc1ccc(NC(=O)Cc2csc(C)n2)c(C)c1 | inactive: 82%
Cc1ccc(C(=O)Nc2ccc(OCc3cc(=O)n4c(C)csc4n3)cc2)cc1 | inactive: 93%
Cc1nc(-c2ccc(Cl)cc2)sc1CCNC(=O)c1cccs1 | inactive: 119%
Cc1cccc(NC(=O)CSc2nncn2C)c1 | inactive: 83%
Cc1ccc(Nc2c(-c3ccc(O)cc3)nc3cccc(C)n23)cc1 | inactive: 91%
CCCOc1ccc(-c2nc(SC)[nH]c(=O)c2C#N)cc1OC | inactive: 90%
CCN(CC)CCN(C(=O)c1ccco1)c1nc2ccc(Br)cc2s1 | inactive: 67%
CC(=O)Nc1nonc1-c1nnc(SCC(=O)Nc2cc(C)cc(C)c2)n1-c1ccccc1 | inactive: 69%
Cc1ccc(S(=O)(=O)c2c(Nc3cc(F)ccc3F)sc(C(=O)c3ccc(F)cc3)c2N)cc1 | inactive: 82%

SMILES | survival
O=C(c1ccc2c(c1)N(Cc1ccccc1)C(=O)c1ccccc1S2(=O)=O)N1CCCCCC1 | inactive: 82%
CCc1ccc(NC(=O)CC2C(=O)N(c3ccc(C)cc3)C(=O)N2C2CCCC2)cc1 (stereo unspecified) | inactive: 83%
CC(C)(C)c1ccc(Oc2nc3ccccn3c(=O)c2/C=C(\C#N)c2nc3ccccc3s2)cc1 | inactive: 78%
COc1cc(NC(=O)Cn2ccn(-c3cc(C)cc(C)c3)c(=O)c2=O)cc(OC)c1 | inactive: 84%
Cc1cc(C)cc(NC(=O)CSc2nc(=O)[nH]c3c2CCC3)c1 | inactive: 121%
CC(C)CN(CCNC(=O)c1cn(C)c2ccc(S(=O)(=O)N3CCCCCC3)cc2c1=O)CC(C)C | inactive: 90%
CN(C)c1oc(-c2ccc(COc3ccccc3)o2)nc1C#N | inactive: 71%
COc1ccc(N2CCN(S(=O)(=O)CCNC(=O)c3cc(=O)c4ccccc4o3)CC2)cc1 | inactive: 78%
Oc1ccc(-c2nnc(SCC3CCCCC3)o2)cc1 | inactive: 99%
Cc1cc(C)cc(NC(=O)CSc2nc3ncccc3[nH]2)c1 | inactive: 88%
Cc1ccc(NC(=O)C(=O)NCC(c2ccc3c(c2)OCO3)N2CCN(C)CC2)c(C)c1 (stereo unspecified) | inactive: 77%
Cc1ccc(NC(=O)C(Cc2ccccc2)NS(=O)(=O)c2ccc3c(c2)CCC(=O)N3)cc1 (stereo unspecified) | inactive: 131%
CS(=O)(=O)c1cccc(-c2nnc(NC(=O)c3ccc4c(c3)OCCO4)o2)c1 | inactive: 67%
CCOC(=O)N1CCC(NC(=O)c2cnn(-c3ccc(C)cc3C)c2C2CCN(C(=O)OC(C)(C)C)CC2)CC1 | inactive: 130%
CC(=O)Nc1cccc(Nc2nc3ccccc3n3c(C)nnc23)c1 | inactive: 97%
O=C(CN1CCCN(Cc2ccc(F)cc2)S1(=O)=O)Nc1ccc2c(c1)OCCO2 | inactive: 121%
COc1ccc(N2CCN(C(=O)c3cccs3)CC2)cc1 | inactive: 85%
CCOc1ccccc1N(C)C(=O)Cn1nc(Cc2ccncc2)c2ccccc2c1=O | inactive: 91%
CCCN(CCC)CCCNC(=O)Cn1ncc2c3ccccc3n(Cc3ccccc3F)c2c1=O | inactive: 135%
CC(=O)c1nn(-c2ccc(OC(F)(F)F)cc2)nc1Nc1ccccc1 | inactive: 88%
CCc1nn(CCCC(=O)NCc2ccc(C)cc2)c(=O)c2cc3occc3n12 | inactive: 93%
COc1ccccc1C(=O)OCc1cc(=O)n2nc(-c3cccs3)sc2n1 | inactive: 67%
O=C(NCc1ccco1)C(c1ccccc1)N(C(=O)Cn1nnc2ccccc21)C1CCCC1 (stereo unspecified) | inactive: 100%

SMILES | survival
CCOC(=O)c1c(NC(=O)CCCOc2ccc(C(C)(C)C)cc2)sc2c1CCCC2 | active: 9%
COc1ccc(OC)c(NC(=O)c2cnc(N3CCCCC3)c3ccccc23)c1 | inactive: 68%
CCOc1ccc(-c2cc(NC(=O)Nc3ccc(Cl)cc3)c(C(=O)OC)s2)cc1 | inactive: 88%
CCCSc1ncc(Cl)c(C(=O)N(Cc2cccc(Cl)c2)C2CCS(=O)(=O)C2)n1 (stereo unspecified) | inactive: 90%
CCOc1ccccc1NC(=S)N1CCC(NC(=O)c2ccco2)CC1 | inactive: 106%
CCOC(=O)C1CCCN(S(=O)(=O)c2cc(Br)cc3c2N(C(C)=O)CC3)C1 (stereo unspecified) | inactive: 71%
Cc1cccc(C(c2sc3nc(-c4ccco4)nn3c2O)N2CCN(c3ccccc3F)CC2)c1 (stereo unspecified) | inactive: 93%
CNS(=O)(=O)c1ccc2c(c1)n(C)c(=O)n2C | inactive: 80%
CCC(=O)N1CCc2cc(S(=O)(=O)NCCC(=O)NCc3ccc(C)cc3)ccc21 | inactive: 79%
O=C1C2C3C=CC(C3)C2C(=O)N1Cc1ccccc1 (stereo unspecified) | inactive: 124%
COC(=O)c1ccc(NS(=O)(=O)c2ccc3[nH]c4c(c3c2)CCCC4)cc1 | active: 1%
O=C(NCCc1ccc(Cl)cc1)c1ccc2c(c1)N(Cc1ccc(F)cc1)C(=O)CS2 | active: 10%
CCc1ccc(NC(=O)[C@H](CSCc2ccccc2)N2Cc3ccccc3C2=O)cc1 | inactive: 79%
COc1ccc(-c2cc3c(=O)n(CC(=O)Nc4cc(F)ccc4F)ccn3n2)cc1OC | inactive: 72%
Cc1nn(-c2ccccc2)c2sc(C(=O)Nc3ccc(Br)cc3)cc12 | inactive: 52%
O=C1COc2ccc(-c3cc(-c4ccccc4)c4c(n3)-c3ccccc3OC4)cc2N1 | inactive: 81%
CCCn1c(SCC(O)c2ccccc2)nc2ccccc21 (stereo unspecified) | inactive: 86%
COc1cccc(CNC(=O)CCCn2ncn3c(cc4occc43)c2=O)c1 | inactive: 79%
CN(C)c1ccc(-c2nc(-c3cccs3)c(-c3cccs3)[nH]2)cc1 | inactive: 65%
COc1cc2nc(Nc3cccc(C)c3)nc(N)c2cc1OC | inactive: 65%
Cc1ccc(C(=O)NCC(c2ccco2)S(=O)(=O)c2cccs2)cc1C (stereo unspecified) | inactive: 99%
COc1cc(-c2nc(=S)[nH][nH]2)cc(OC)c1OC | inactive: 88%
